These results are taken from the supplement of paper PMC11417369.

± gives the standard deviation of the averaged measurements. The list shows a part of the results.

The test system of the test is PfAP2-I AP2 domain 3 (GST-tagged). The experiment in a line: gcPBM binding intensity (ln(normalized median fluorescence intensity)); higher = stronger DNA binding. A digest of the protocol:
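Each value is the highest Masliner-normalised natural-log median intensity across replicate spots of either orientation of a probe. The probes were primer-extended double-stranded 36-bp intergenic genomic sequences on an Agilent 4 × 180k array, alongside negative controls, exposed for 1 h to GST-tagged P. falciparum DNA-binding domains expressed in E. coli. Bound protein was picked up with Alexa488 anti-GST antibody and scanned at 488 nm.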
“TAGGAAAAGAAAAGCACACACATAAATAGATATATA [CACACA_site6382]”: the “gcPBM binding intensity (ln)” value stood at 8.09 ± 0.31.

Regarding “TCTTTAATATATAGTGCATGTAAATTTTACAATAAT [TGCATGCA_site242]”, the “gcPBM binding intensity (ln)” value stood at 9.58 ± 0.23.

As to “TATGGTATATACAACACACACACATATGTATATATA [CACACA_site927]”, the “gcPBM binding intensity (ln)” value is 7.98 ± 0.45.

Consider “ATCAAGCACGGACACACACACACACCCAGACCCCCA [CACACA_site4360]”, for which the “gcPBM binding intensity (ln)” value came to 8.49 ± 0.47.

Take AAGTTAACACAACAGGTGCAAGAAAAGTTTTTAATG: the “gcPBM binding intensity (ln)” value was 10.39 ± 0.035.

For the sequence “AGTTAATGTTTATGTACACACGGTGGGTATATATTT [CACACA_site5785]”, the “gcPBM binding intensity (ln)” value turned out to be 8.12 ± 0.54.

For the sequence “TGCAACAAAATAAACACACACACACTAACACAAAAA [CACACA_site7567]”, the “gcPBM binding intensity (ln)” value was 8.24 ± 0.31.

As to “TTTAAAAATAAAAGTACACACATAAACATATTGCAC [CACACA_site6784]”, the “gcPBM binding intensity (ln)” value is 10.8 ± 0.79.

“ATATTATATATATGTGCACACAAAAGATATATATAT [CACACA_site2125]”: the “gcPBM binding intensity (ln)” value worked out at 9.78 ± 0.21.

Take “TTTTCATTTGAAAGTCGTACAAGTTCGAAAAAAGGA [XGTACX_site6840]”: the “gcPBM binding intensity (ln)” value was 7.89 ± 0.53.

As for “CTTAAAAAAACCTTAACACACATAAACTATAATTTA [CACACA_site3055]”, the “gcPBM binding intensity (ln)” value amounted to 7.54 ± 0.28.

In the case of “ATAAGCAATAAAAAAACATGCATATTATTATCAACA [TGCATGCA_site1027]”, the “gcPBM binding intensity (ln)” value was 7.79 ± 0.61.

Regarding “AAAACATACATATATACACACATATATATATATATA [CACACA_site1852]”, the “gcPBM binding intensity (ln)” value came out at 9.31 ± 0.61.

Consider “CAAACTACAAAATTTCGTACGCATATATTTCAAGTA [XGTACX_site5154]”, for which the “gcPBM binding intensity (ln)” value was 7.68 ± 0.39.

Take “TATGTTGGTTCTTTTAGTACATAATTACTAAATGTA [XGTACX_site8616]”: the “gcPBM binding intensity (ln)” value stood at 7.91 ± 0.38.

As to “CTTTTTTATATCTCTACACACATTTATAACAATTTG [CACACA_site1398]”, the “gcPBM binding intensity (ln)” value amounted to 8.05 ± 0.71.

Take TTTAAACGTTATATAGTGCATGTCATATTTTATTAT: the “gcPBM binding intensity (ln)” value came to 8.62 ± 0.57.

In the case of “TACGTAATAATATGCACACAAATAAACTTTATAAAT [CACACA_site3501]”, the “gcPBM binding intensity (ln)” value was found to be 9.08 ± 0.14.

On to “CAAAAAAGTAAAACGTGTACATATATACATAAAAAT [XGTACX_site5639]”, for which the “gcPBM binding intensity (ln)” value stood at 8.13 ± 0.47.

On to “TTTTTTTAACGGTGTGCACACAATATACAGAAAAAA [CACACA_site1415]”, for which the “gcPBM binding intensity (ln)” value was 9.85 ± 0.14.

In the case of “TATATACATTTATATACACACCTATATTTATTTATA [CACACA_site7014]”, the “gcPBM binding intensity (ln)” value was determined as 7.85 ± 0.49.

On to “ATTATATATATTTATGCACACAAAATATATTATATA [CACACA_site9244]”, for which the “gcPBM binding intensity (ln)” value is 9.78 ± 0.3.

Take “ATGTACCTATTTCATACACACACACCCACAAACAAA [CACACA_site8232]”: the “gcPBM binding intensity (ln)” value was 8.61 ± 0.13.

“CAACAATTTCGTCATACACACATTCAGAATCTATAT [CACACA_site7171]”: the “gcPBM binding intensity (ln)” value came out at 7.65 ± 0.62.

Regarding “TATATTGAAAATAAAACATGCAATCACTCATACATA [TGCATGCA_site248]”, the “gcPBM binding intensity (ln)” value turned out to be 7.41 ± 0.63.

As to “TATACATTTATGTACACACACATATAGGTATATTTA [CACACA_site7408]”, the “gcPBM binding intensity (ln)” value was determined as 7.8 ± 0.085.

Consider “AAAATATAATATATTACACACATATATTTTATAAGT [CACACA_site668]”, for which the “gcPBM binding intensity (ln)” value is 7.58 ± 0.47.

As for “TTATTCTAAAAAGGGTGTACACAAACGAATGGAAAA [XGTACX_site5662]”, the “gcPBM binding intensity (ln)” value came out at 8.98 ± 0.38.

As for “AGCAGTCAGCAGGACAGTACACAGTAGCCAGGAAAT [XGTACX_site4877]”, the “gcPBM binding intensity (ln)” value is 7.78 ± 0.95.

Turning to “AAAAAAAAAATTTAGGTGCATACAAATAAATTATAT [GTGCAC_site9521]”, the “gcPBM binding intensity (ln)” value is 10.2 ± 0.48.

In the case of “ATGGCTAAAAGTTGCACACACACAAAAAAAAAAAAA [CACACA_site3289]”, the “gcPBM binding intensity (ln)” value stood at 8.76 ± 0.16.

On to “TATATATTAATATGCACACACAAGAAGTAATTATAA [CACACA_site3193]”, for which the “gcPBM binding intensity (ln)” value is 9.085 ± 0.035.

With “GGCATACACGGACACACACACACACCGACATATATA [CACACA_site4493]”, the “gcPBM binding intensity (ln)” value was 8.46 ± 0.3.

For the sequence “ATTATATAACAAAATAGTACATATATTTATTACATC [XGTACX_site336]”, the “gcPBM binding intensity (ln)” value was 7.8 ± 0.47.

Consider “TGCACAAAATTATGCACACACCTAAAATTAATTTTT [CACACA_site5596]”, for which the “gcPBM binding intensity (ln)” value is 9.98 ± 0.32.

For “ATTCTAATCATATACACACCCATATATATATATATA [CACACA_site1774]”, the “gcPBM binding intensity (ln)” value stood at 9.4 ± 0.46.

As for “GGCAATGATTTTAGGTGTACTTAAAAATCAAATTAA [XGTACX_site8587]”, the “gcPBM binding intensity (ln)” value was 7.99 ± 0.13.

Take “TAATTTCTTATGTGCTATCTTATATAGAATTAATTT [CACACA_negctrl_site1726]”: the “gcPBM binding intensity (ln)” value is 7.72 ± 0.48.

With “TATAAAAAATAAAATACACACACATATATATATATA [CACACA_site8365]”, the “gcPBM binding intensity (ln)” value was found to be 9.34 ± 0.2.

As to “AAGAAAAAAAAAAAAACACACATATATTTATTTATA [CACACA_site7042]”, the “gcPBM binding intensity (ln)” value is 7.3 ± 0.42.

As for “GAAAGAAAAAATGATGAATAGAGATCAAATCTATAT [XGTACX_negctrl_site28]”, the “gcPBM binding intensity (ln)” value amounted to 7.46 ± 0.73.

Take “TATACACATAGACACACACACAAAAAAAAAAAAAAA [CACACA_site6338]”: the “gcPBM binding intensity (ln)” value came out at 8.02 ± 0.71.

For the sequence “TGACATATTATTAGGTGGTCACGTCTCCACGTCAAG [XGTACX_site7943]”, the “gcPBM binding intensity (ln)” value was 7.89 ± 0.45.

For “TTGAGAAAAATTAATGGTACACATATTATAAGTATA [XGTACX_site6539]”, the “gcPBM binding intensity (ln)” value is 7.88 ± 0.32.

On to “TGTATAACATTTAGGTGTACAATTATATATAATATA [XGTACX_site8131]”, for which the “gcPBM binding intensity (ln)” value amounted to 7.99 ± 0.32.
